# Results: the supplement of paper PMC8728848
# This is one part of the list.
# Columns and labels:
# Test in all cases: glycan array binding signal (z-score within array); higher = stronger binding
# Conditions in all cases: glycan notation: IUPAC condensed, linker removed
# [1] = target: Gal(b1-4)GlcNAc(b1-3)Gal(b1-4)GlcNAc(b1-2)[Gal(b1-4)GlcNAc(b1-3)Gal(b1-4)GlcNAc(b1-6)]Man(a1-6)[Gal(b1-4)GlcNAc(b1-3)Gal(b1-4)GlcNAc(b1-2)Man(a1-3)]Man(b1-4)GlcNAc(b1-4)[Fuc(a1-6)]GlcNAc
# Summary of the method: (§1)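 Glycan array binding is given as a within-array Z-score, which can be read as non-binding when negative. The arrays, 3228 of them, came from the Consortium for Functional Glycomics database and were retained only where the protein sequence was available. Z-scores were averaged across arrays of the same protein sequence at different concentrations or buffers and across linkers.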
# [2] = target: Gal(b1-4)GlcNAc(b1-3)Gal(b1-4)GlcNAc(b1-3)Gal(b1-4)GlcNAc
# Summary of the method: as §1
# [3] = target: Gal(b1-4)GlcNAc(b1-3)Gal(b1-4)GlcNAc(b1-3)Gal(b1-4)GlcNAc(b1-2)Man(a1-3)[Gal(b1-4)GlcNAc(b1-3)Gal(b1-4)GlcNAc(b1-3)Gal(b1-4)GlcNAc(b1-2)Man(a1-6)]Man(b1-4)GlcNAc(b1-4)GlcNAc
# Summary of the method: as §1
# [4] = target: Gal(b1-4)GlcNAc(b1-3)Gal(b1-4)GlcNAc(b1-3)Gal(b1-4)GlcNAc(b1-2)Man(a1-3)[Gal(b1-4)GlcNAc(b1-3)Gal(b1-4)GlcNAc(b1-3)Gal(b1-4)GlcNAc(b1-2)Man(a1-6)]Man(b1-4)GlcNAc(b1-4)[Fuc(a1-6)]GlcNAc
# Summary of the method: as §1
# [5] = target: Gal(b1-4)GlcNAc(b1-3)Gal(b1-4)GlcNAc(b1-3)Gal(b1-4)GlcNAc(b1-2)[Gal(b1-4)GlcNAc(b1-3)Gal(b1-4)GlcNAc(b1-3)Gal(b1-4)GlcNAc(b1-6)]Man(a1-6)[Gal(b1-4)GlcNAc(b1-3)Gal(b1-4)GlcNAc(b1-3)Gal(b1-4)GlcNAc(b1-2)Man(a1-3)]Man(b1-4)GlcNAc(b1-4)[Fuc(a1-6)]GlcNAc
# Summary of the method: as §1
# [6] = target: Gal(b1-4)GlcNAc(b1-3)Gal(b1-4)GlcNAc(b1-3)Gal(b1-4)GlcNAc(b1-3)Gal(b1-4)GlcNAc(b1-2)Man(a1-3)[Gal(b1-4)GlcNAc(b1-3)Gal(b1-4)GlcNAc(b1-3)Gal(b1-4)GlcNAc(b1-3)Gal(b1-4)GlcNAc(b1-2)Man(a1-6)]Man(b1-4)GlcNAc(b1-4)GlcNAc
# Summary of the method: as §1
# [7] = target: Gal(b1-4)GlcNAc(b1-3)Gal(b1-4)GlcNAc(b1-3)Gal(b1-4)GlcNAc(b1-3)Gal(b1-4)GlcNAc(b1-2)Man(a1-3)[Gal(b1-4)GlcNAc(b1-3)Gal(b1-4)GlcNAc(b1-3)Gal(b1-4)GlcNAc(b1-3)Gal(b1-4)GlcNAc(b1-2)Man(a1-6)]Man(b1-4)GlcNAc(b1-4)[Fuc(a1-6)]GlcNAc
# Summary of the method: as §1
# [8] = target: Gal(b1-4)GlcNAc(b1-3)Gal(b1-4)GlcNAc(b1-3)Gal(b1-4)GlcNAc(b1-3)Gal(b1-4)GlcNAc(b1-2)[Gal(b1-4)GlcNAc(b1-3)Gal(b1-4)GlcNAc(b1-3)Gal(b1-4)GlcNAc(b1-3)Gal(b1-4)GlcNAc(b1-6)]Man(a1-6)[Gal(b1-4)GlcNAc(b1-3)Gal(b1-4)GlcNAc(b1-3)Gal(b1-4)GlcNAc(b1-3)Gal(b1-4)GlcNAc(b1-2)Man(a1-3)]Man(b1-4)GlcNAc(b1-4)[Fuc(a1-6)]GlcNAc
# Summary of the method: as §1
# [9] = target: Gal(b1-4)GlcNAc(b1-3)Gal(b1-4)GlcNAc(b1-3)Gal(b1-4)GlcNAc(b1-3)Gal(b1-4)GlcNAc(b1-3)Gal(b1-4)GlcNAc(b1-2)Man(a1-3)[Gal(b1-4)GlcNAc(b1-3)Gal(b1-4)GlcNAc(b1-3)Gal(b1-4)GlcNAc(b1-3)Gal(b1-4)GlcNAc(b1-3)Gal(b1-4)GlcNAc(b1-2)Man(a1-6)]Man(b1-4)GlcNAc(b1-4)GlcNAc
# Summary of the method: as §1
# [10] = target: Gal(b1-4)GlcNAc(b1-3)Gal(b1-4)GlcNAc(b1-3)Gal(b1-4)GlcNAc(b1-3)Gal(b1-4)GlcNAc(b1-3)Gal(b1-4)GlcNAc(b1-2)Man(a1-3)[Gal(b1-4)GlcNAc(b1-3)Gal(b1-4)GlcNAc(b1-3)Gal(b1-4)GlcNAc(b1-3)Gal(b1-4)GlcNAc(b1-3)Gal(b1-4)GlcNAc(b1-2)Man(a1-6)]Man(b1-4)GlcNAc(b1-4)[Fuc(a1-6)]GlcNAc
# Summary of the method: as §1
# [11] = target: Gal(b1-4)GlcNAc(b1-3)Gal(b1-4)GlcNAc(b1-3)Gal(b1-4)GlcNAc(b1-3)Gal(b1-4)GlcNAc(b1-3)Gal(b1-4)GlcNAc(b1-2)[Gal(b1-4)GlcNAc(b1-3)Gal(b1-4)GlcNAc(b1-3)Gal(b1-4)GlcNAc(b1-3)Gal(b1-4)GlcNAc(b1-3)Gal(b1-4)GlcNAc(b1-6)]Man(a1-6)[Gal(b1-4)GlcNAc(b1-3)Gal(b1-4)GlcNAc(b1-3)Gal(b1-4)GlcNAc(b1-3)Gal(b1-4)GlcNAc(b1-3)Gal(b1-4)GlcNAc(b1-2)Man(a1-3)]Man(b1-4)GlcNAc(b1-4)[Fuc(a1-6)]GlcNAc
# Summary of the method: as §1
# [12] = target: Gal(b1-4)GlcNAc(b1-3)Gal(b1-4)GlcNAc(b1-3)Gal(b1-4)GlcNAc(b1-3)Gal(b1-4)GlcNAc(b1-3)Gal(b1-4)GlcNAc(b1-3)Gal(b1-4)GlcNAc(b1-2)Man(a1-3)[Gal(b1-4)GlcNAc(b1-3)Gal(b1-4)GlcNAc(b1-3)Gal(b1-4)GlcNAc(b1-3)Gal(b1-4)GlcNAc(b1-3)Gal(b1-4)GlcNAc(b1-3)Gal(b1-4)GlcNAc(b1-2)Man(a1-6)]Man(b1-4)GlcNAc(b1-4)GlcNAc
# Summary of the method: as §1
# [13] = target: Gal(b1-4)GlcNAc(b1-3)Gal(b1-4)GlcNAc(b1-3)GalNAc
# Summary of the method: as §1
# [14] = target: Gal(b1-4)GlcNAc(b1-3)Gal(b1-4)GlcNAc(b1-3)[Gal(b1-4)GlcNAc(b1-3)Gal(b1-4)GlcNAc(b1-6)]GalNAc
# Summary of the method: as §1
# [15] = target: Gal(b1-4)GlcNAc(b1-3)Gal(b1-4)GlcNAc(b1-6)[Gal(b1-3)]GalNAc
# Summary of the method: as §1
# [16] = target: Gal(b1-4)GlcNAc(b1-3)Gal(b1-4)[Fuc(a1-3)]GlcNAc(b1-3)Gal(b1-4)[Fuc(a1-3)]GlcNAc
# Summary of the method: as §1
# [17] = target: Gal(b1-4)GlcNAc(b1-3)GalNAc
# Summary of the method: as §1
# [18] = target: Gal(b1-4)GlcNAc(b1-3)[Fuc(a1-3)GlcNAc(b1-6)]Gal(b1-4)Glc
# Summary of the method: as §1
# [19] = target: Gal(b1-4)GlcNAc(b1-3)[Gal(b1-4)GlcNAc(b1-6)]Gal(b1-4)GlcNAc
# Summary of the method: as §1
# [20] = target: Gal(b1-4)GlcNAc(b1-3)[GlcNAc(b1-6)]Gal(b1-4)GlcNAc
# Summary of the method: as §1
# [21] = target: Gal(b1-4)GlcNAc(b1-6)Gal(b1-4)GlcNAc
# Summary of the method: as §1
# [22] = target: Gal(b1-4)GlcNAc(b1-6)GalNAc
# Summary of the method: as §1
# [23] = target: Gal(b1-4)GlcNAc(b1-6)[Gal(b1-3)]GalNAc
# Summary of the method: as §1
# [24] = target: Gal(b1-4)GlcNAc(b1-6)[Gal(b1-4)GlcNAc(b1-3)]GalNAc
# Summary of the method: as §1
# Gal(b1-4)GlcNAc6P = target: Gal(b1-4)GlcNAc6P
# Summary of the method: as §1
# Gal(b1-6)Gal = target: Gal(b1-6)Gal
# Summary of the method: as §1
# Gal3S(b1-3)GalNAc = target: Gal3S(b1-3)GalNAc
# Summary of the method: as §1
# Gal3S(b1-3)GlcNAc = target: Gal3S(b1-3)GlcNAc
# Summary of the method: as §1
# [25] = target: Gal3S(b1-3)[Fuc(a1-4)]GlcNAc
# Summary of the method: as §1
# Gal3S(b1-4)Glc = target: Gal3S(b1-4)Glc
# Summary of the method: as §1
# Gal3S(b1-4)Glc6S = target: Gal3S(b1-4)Glc6S
# Summary of the method: as §1
# Gal3S(b1-4)GlcNAc = target: Gal3S(b1-4)GlcNAc
# Summary of the method: as §1
# [26] = target: Gal3S(b1-4)[Fuc(a1-3)]Glc6S
# Summary of the method: as §1
# [27] = target: Gal3S(b1-4)[Fuc(a1-3)]GlcNAc
# Summary of the method: as §1
# [28] = target: Gal3S(b1-4)[Fuc(a1-3)]GlcNAc6S
# Summary of the method: as §1
# Gal3S4S(b1-4)GlcNAc = target: Gal3S4S(b1-4)GlcNAc
# Summary of the method: as §1
# Gal3S6S(b1-4)GlcNAc = target: Gal3S6S(b1-4)GlcNAc
# Summary of the method: as §1
binder,measurement,setting,value
FliD (Clostridium difficile) (protein) MSSISPVRVTGLSGNFDMEGIIEASMIRDKEKVNKAKQDQQIVKWKQEIYRDIIKESKNLYDKYLNGDSPNSITNKKAYSATRITSSDESIIVAKGSAGAEKINYQFAVSQMAEPAKVTIKLNSSDPIVQQFPPNASGASSLNIGGVNIPISEQDTTSTIVSKINSLCADNDIRASYSEMTGELIISRKQTGSSSDIDLKVIGNDSLAGQIASDNGITFTTDASGTKSAVVYGKNLEADVTDDQGRVTHISKEQNSFKIDNIDYNVNSKGSAKLVSVTDTEEATKNMKAFVDDYNALMDKVYGLVTTKKSKDYPPLTDEQKDDMTTEEIEKWEKKAKEGILRNDDELRAFVEDIQSMFFGDADTIIALRKLGISEHENYNKKGQISFNADTFSKALIDDSDKVYKALAGYSSNYDDKGMFEKLKKIVFEYSGSSASKLTKKAGMENSSSASQNVYSKQIAEQERNISRLVEKMNDKEKRLYAKYSALESLLNKYSSQMNYFSQAQGN,glycan array binding signal (z-score),[1],-0.119
same,glycan array binding signal (z-score),[2],-0.169
same,glycan array binding signal (z-score),[3],-0.102
same,glycan array binding signal (z-score),[4],0.119
same,glycan array binding signal (z-score),[5],-0.102
same,glycan array binding signal (z-score),[6],0.305
same,glycan array binding signal (z-score),[7],1.2
same,glycan array binding signal (z-score),[8],-0.166
same,glycan array binding signal (z-score),[9],-0.072
same,glycan array binding signal (z-score),[10],-0.064
same,glycan array binding signal (z-score),[11],0.4
same,glycan array binding signal (z-score),[12],-0.104
same,glycan array binding signal (z-score),[13],0.126
same,glycan array binding signal (z-score),[14],0.086
same,glycan array binding signal (z-score),[15],0.051
same,glycan array binding signal (z-score),[16],-0.166
same,glycan array binding signal (z-score),[17],-0.215
same,glycan array binding signal (z-score),[18],-0.184
same,glycan array binding signal (z-score),[19],0.414
same,glycan array binding signal (z-score),[20],0.021
same,glycan array binding signal (z-score),[21],-0.155
same,glycan array binding signal (z-score),[22],-0.184
same,glycan array binding signal (z-score),[23],-0.18
same,glycan array binding signal (z-score),[24],-0.169
same,glycan array binding signal (z-score),Gal(b1-4)GlcNAc6P,-0.155
same,glycan array binding signal (z-score),Gal(b1-6)Gal,-0.166
same,glycan array binding signal (z-score),Gal3S(b1-3)GalNAc,0.678
same,glycan array binding signal (z-score),Gal3S(b1-3)GlcNAc,0.039
same,glycan array binding signal (z-score),[25],-0.212
same,glycan array binding signal (z-score),Gal3S(b1-4)Glc,3.41
same,glycan array binding signal (z-score),Gal3S(b1-4)Glc6S,1.24
same,glycan array binding signal (z-score),Gal3S(b1-4)GlcNAc,0.108
same,glycan array binding signal (z-score),[26],-0.185
same,glycan array binding signal (z-score),[27],-0.139
same,glycan array binding signal (z-score),[28],0.916
same,glycan array binding signal (z-score),Gal3S4S(b1-4)GlcNAc,-0.16
same,glycan array binding signal (z-score),Gal3S6S(b1-4)GlcNAc,-0.201
